Measurements: the RNAGym collection of RNA variant scans (doi:10.1093/nar/gkz1192)
The source gives no read counts; variants with many changes may rest on few reads.

B1: CPEB3 Ribozyme (parent)
chain: UAACAGGGGGCCACAGCAGAAGCGUUCACGUCGCAGCCCCUGUCAGAUUCUGGUGAAUCUGCGAAUUCUGCUGUAUAUCUC

Variants of: B1
Experiment: self-cleavage, relative activity (ratio to wild type); higher = more cleavage; in vitro, sequencing
Method in brief: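 CPEB3 self-cleaving ribozyme mutant libraries were made by rounds of error-prone PCR, barcoded, and transcribed in vitro with T7 RNA polymerase for 5 hours at 37°C. Cleavage occurred during transcription and a 15 min DNase I step before EDTA stop. RNAs were reverse transcribed with template switching and Illumina-sequenced, with DNA sequencing mapping barcodes to variants. Relative activity is the variant's cleaved/total read fraction divided by wild type's (minimum 5 reads), averaged across three batches.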

| Variant | self-cleavage |
| --- | --- |
| C37U A57G U80A | 1 |
| A35G U49C G52A U74C | 1.21 |
| A35U U54G U60C | 0.14 |
| C34A G36U U54C A56G | 0.1 |
| A35U U51C U67C | 0.33 |
| A35U A65U U74C | 0.14 |
| G33C C37U A57G U72A | 0.06 |
| A35G G36A A47G | 0.88 |
| A35U U43A U58G | 0.17 |
| A35G U43C A47G U51C | 1.2 |
| A35U C62U A64U | 0.15 |
| G33A A35C C39A | 0.06 |
| C37A C39A U54C U72C | 0.13 |
| A35U C40A U43A U49C A56G U72A | 0.1 |
| A35C U41A U51A U54G C62A | 0.18 |
| C34U C37U U74C U80C | 0.39 |
| A35U A47U U58C | 0.27 |
| A35G U51G C59A | 1.07 |
| G36C U51A A75U | 0.11 |
| C38A A45U U49C | 0.07 |
| G33A U54C U72C | 0.14 |
| C37U A45U U51A A56G A75U | 0.14 |
| C37U A45U U54C U58C U67C | 0.07 |
| A35G C40U A56G | 1.27 |

| Variant | self-cleavage |
| --- | --- |
| A35U A56G U58A | 0.4 |
| A35G A45G U58A G63A U67C U72C | 0.1 |
| A35G U43C U66C U67A | 0.24 |
| A35G U60A G63A U69C | 0.81 |
| G33A A35C C37U U74C A77G | 0.16 |
| A35G U43C U49C | 0.66 |
| C34U U41C U80A | 0.5 |
| G36U C71G A75U | 0.11 |
| A35G U41A U80A | 0.52 |
| G33C A77U U80A | 0.15 |
| G36U U43C A45U U54C | 0.35 |
| G36U U43C U78C | 0.12 |
| A35G A57G A77G | 1.28 |
| G36C U41G U60A U76A | 0.09 |
| A35G G42A C62U U72A | 0.15 |
| G33C U51A U54A U72A U78C | 0.06 |
| A35C U41A U54G C62A | 0.15 |
| C38G U43C U74C | 0.17 |
| A35U U54C A64G | 0.35 |
| A35U C37U U41C A64G | 0.18 |
| C37U A75U U78C | 0.7 |
| A35G U49C U51C A64G U74G | 0.33 |
| A35G U43C A47C U49A U80C | 0.2 |
| A35G U51C U58A | 1.14 |

| Variant | self-cleavage |
| --- | --- |
| G33U A35U U60C | 0.09 |
| G33A U66C U80C | 0.1 |
| C38G U43G U69C | 0.17 |
| G33U A45C U66A | 0.11 |
| A35G C50U A56G | 1.45 |
| C32U G33A U41A U74A | 0.22 |
| G36A A57G U60A U66A U69C | 0.1 |
| A35G U51G U67C | 0.93 |
| A35U U41C A57G U76C | 0.6 |
| G33C A56G U69A A77G | 0.1 |
| A35G U66C A77G | 1.33 |
| A35U U43C U48C C68A | 0.1 |
| C34U A65G U76C | 0.17 |
| C37U G52U U69G | 0.59 |
| C37G U54A U69A C81G | 0.12 |
| C34U G55A U60C C62U A65G U69A | 0.41 |
| A35U A56G U60G | 0.12 |
| A35U A56G U60A | 0.1 |
| A35G C38U U43C U49C G52A | 0.75 |
| A35U A45C U60C | 0.09 |
| C37U A77C C81U | 0.79 |
| A35U A47U U54C U66C | 0.07 |
| C37U U41G U49C U78C U80C | 0.07 |
| C38A U41C A47U A64G U80C | 0.14 |

| Variant | self-cleavage |
| --- | --- |
| G33A U51A C59U U72A | 0.43 |
| G36U U41C U67C | 0.06 |
| C32U U41A U51A A56G G61U U69C U72A | 0.06 |
| A35G U48A U58C U66C | 0.16 |
| A35U A75G A77G | 0.26 |
| C32U G36A A45U | 0.1 |
| A35G A47G A65U U76A | 0.92 |
| C37U A65G C68U | 0.24 |
| A35C U54C U58A | 0.18 |
| A35G U43C U67C C81U | 0.19 |
| A35U U51A G53A U54G U78A | 0.54 |
| A35G U66A U69A U74C | 0.73 |
| C34U A45G U72C | 0.38 |
| A35U U43A A57G U78C | 0.18 |
| A35G U51G U80A | 1.3 |
| A35U U41A A64U | 0.19 |
| A35U C40U U41A | 0.1 |
| A35U U78C U80C | 0.4 |
| C37U U41C A64U U74C | 0.11 |
| A35U C62U U74G | 0.13 |
| A35U U43C A57G U60A A77G | 0.07 |
| C32U U41A A56G A64G | 0.08 |
| A35G A45C A56G C62G | 0.22 |
| G33A U49C U69C A77G | 0.05 |

| Variant | self-cleavage |
| --- | --- |
| G33C C39A U48C U74C | 0.05 |
| A35G A64G U67C U80A | 0.74 |
| C32U C40G U43A U58C | 0.07 |
| A35G U43C A57G A65G U78C | 0.72 |
| A35G A57G U69C | 1.13 |
| C38A U49C A64G U74C | 0.43 |
| C34G U58A U69A | 0.07 |
| A35G U49A U51C U54A | 1.24 |
| C32U U49G U76C | 0.19 |
| A35C A56G G61A U72C U78C | 0.35 |
| C32U U49C C79U | 0.35 |
| A35U A57G C62G | 0.18 |
| G33A U48A A56G U78G U80C | 0.05 |
| C38A U41C U60C G73A | 0.64 |
| A35C U43C A47C | 0.13 |
| A35G U66A U78C | 1.24 |
| C37U G46U G55C U66C | 0.09 |
| G33A A35G U54C U66C U78C | 0.06 |
| C34A U51C U58C U72C U76A | 0.07 |
| A35G G46U G63A | 0.87 |
| G33A A35U U41C C50G A57G U80C | 0.08 |
| A35G C37G U41C A56G C59A C81U | 0.17 |
| A35U U51C U80C | 0.69 |
| C37U U48C U54G U60A A77G | 0.13 |

| Variant | self-cleavage |
| --- | --- |
| A35U U51A U54A C79A | 0.72 |
| A35G U43A U78C U80C | 1.2 |
| G36A U58C U60C A77G U78C | 0.05 |
| C34G A64G U69A G70C | 0.12 |
| C34A A45U U66C | 0.11 |
| A35G C38U U74C U80C | 1.29 |
| A35G A65G U74A | 1.37 |
| C32U G46U U66A U78A | 0.06 |
| G36C U43C U69C | 0.11 |
| A35C U51C U54C | 0.67 |
| A35G U48A U54C U72A G73C U76C U80C | 1.18 |
| G33A A35U A56G A64U U78C | 0.11 |
| G36C U49C A56G | 0.16 |
| G36A U54C U72A | 0.14 |
| A35U A56G U78A | 0.38 |
| G33U U60G U69C G70A | 0.1 |
| G33A U49C U58C U72G | 0.09 |
| G33C U48C A64G U67C | 0.14 |
| A35G C37U A57G | 1.25 |
| G33U U66A U69C U72C | 0.09 |
| A35G G52A A56U U58C | 0.73 |
| A35C A56G U58A A64U | 0.15 |
| A35U G53A A64U | 0.15 |
| A35G U43A U51A U72C U76C | 1.29 |

| Variant | self-cleavage |
| --- | --- |
| A35G A56U A64U U72A | 0.55 |
| A35C U72C U80C | 1.22 |
| A35G U60C A64G A77G | 0.83 |
| G36C A64U U72C | 0.11 |
| C34G U54G A77C | 0.19 |
| C37U C38A G70U U76A | 0.04 |
| G36A U41G U48C A57G U74A | 0.09 |
| C32U G33A C37A U67C | 0.15 |
| G33C C39A U48C U60C U74C | 0.16 |
| A35C U51C U74A | 1.16 |
| A35U U48A U69C | 0.41 |
| C32U U41C A45G | 0.13 |
| G33A A35C A56U U78C | 0.18 |
| A35G U60C C62A U74A | 0.47 |
| A35G U41C U48A C71A | 0.19 |
| C37A U48C U49C U72A U74C | 0.06 |
| A35C U58C A64U U80C | 0.15 |
| A35G U69C G70C U80C | 0.32 |
| A35G U54G A75U | 1.29 |
| A35G U43A U51C A56G | 1.38 |
| C34U C50U U72C | 0.54 |
| A35U U49C A57G A64U | 0.07 |
| C38A A45U U54C U72C U78C | 0.06 |
